Data published in publication PMC2363329, “Interaction of the PA2G4 (EBP1) protein with ErbB-3 and regulation of this binding by heregulin” (British Journal of Cancer, 2000).
Results are given in words; binding and its absence hold for the method and conditions named. Binding seen in cells or lysates may run through a third protein. Some results given as binding are weak or reduced against the parent protein; the word gives no strength. Tags and fused reporters may be left off the sequences shown.

Assays:
Test in all cases: pull-down; data not shown: GST-ErbB-3 deletion mutants 665-1241, 665-1120, 665-931, 665-822 tested for binding to in vitro translated Ebp1 (grades in the diagram of Figure 4A); only the target purified
[1] = biological target: T1, GST-erbB3 (aa 665-1120) (rat) (UniProt Q62799)
T1 sequence: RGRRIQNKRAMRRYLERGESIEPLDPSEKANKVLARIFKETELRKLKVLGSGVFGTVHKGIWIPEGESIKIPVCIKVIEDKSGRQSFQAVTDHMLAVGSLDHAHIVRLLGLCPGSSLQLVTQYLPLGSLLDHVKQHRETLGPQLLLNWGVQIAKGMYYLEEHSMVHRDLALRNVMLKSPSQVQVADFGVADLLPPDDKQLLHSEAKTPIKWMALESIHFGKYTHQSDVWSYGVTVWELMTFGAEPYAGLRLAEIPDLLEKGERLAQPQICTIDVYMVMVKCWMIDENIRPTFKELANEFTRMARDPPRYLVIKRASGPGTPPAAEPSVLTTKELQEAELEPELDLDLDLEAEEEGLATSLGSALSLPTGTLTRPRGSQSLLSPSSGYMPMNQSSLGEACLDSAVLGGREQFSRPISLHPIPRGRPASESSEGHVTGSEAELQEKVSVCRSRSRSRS

[2] = biological target: T2, GST-erbB3 (aa 665-1241) (rat) (UniProt Q62799)
T2 sequence: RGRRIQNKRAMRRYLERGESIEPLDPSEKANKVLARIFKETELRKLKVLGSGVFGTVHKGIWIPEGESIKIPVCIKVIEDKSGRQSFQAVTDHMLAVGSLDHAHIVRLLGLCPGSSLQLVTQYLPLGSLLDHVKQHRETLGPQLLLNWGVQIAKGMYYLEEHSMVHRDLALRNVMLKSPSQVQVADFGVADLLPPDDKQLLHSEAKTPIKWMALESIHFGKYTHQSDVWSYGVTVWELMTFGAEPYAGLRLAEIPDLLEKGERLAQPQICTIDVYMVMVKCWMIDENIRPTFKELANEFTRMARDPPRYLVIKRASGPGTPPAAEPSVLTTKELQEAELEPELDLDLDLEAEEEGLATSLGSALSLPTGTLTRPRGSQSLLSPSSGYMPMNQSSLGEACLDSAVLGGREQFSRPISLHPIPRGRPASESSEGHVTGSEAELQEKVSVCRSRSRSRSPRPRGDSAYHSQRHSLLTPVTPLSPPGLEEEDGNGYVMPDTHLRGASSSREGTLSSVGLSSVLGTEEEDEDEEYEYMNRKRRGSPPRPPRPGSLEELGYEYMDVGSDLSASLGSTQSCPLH

[3] = biological target: T3, GST-erbB3 (aa 665-822) (rat) (UniProt Q62799)
T3 sequence: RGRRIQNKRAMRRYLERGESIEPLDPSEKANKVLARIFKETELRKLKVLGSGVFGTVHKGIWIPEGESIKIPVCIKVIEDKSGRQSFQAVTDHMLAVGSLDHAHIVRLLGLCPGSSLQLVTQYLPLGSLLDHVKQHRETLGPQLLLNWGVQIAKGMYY

[4] = biological target: T4, GST-erbB3 (aa 665-931) (rat) (UniProt Q62799)
T4 sequence: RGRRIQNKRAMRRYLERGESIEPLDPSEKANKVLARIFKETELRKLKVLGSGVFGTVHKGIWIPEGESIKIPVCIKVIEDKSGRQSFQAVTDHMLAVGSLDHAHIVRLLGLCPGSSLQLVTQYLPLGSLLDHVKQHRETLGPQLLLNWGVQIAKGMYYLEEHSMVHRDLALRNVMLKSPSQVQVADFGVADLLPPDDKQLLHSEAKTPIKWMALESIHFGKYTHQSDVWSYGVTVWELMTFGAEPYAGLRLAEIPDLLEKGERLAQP

Measured: binding

B1: 35S-labelled in vitro translation product of pBK/Ebp1 (amino acids 1-373 of Ebp1) (domain or fragment, UniProt Q9UQ80 1-373)
chain: MSGEDEQQEQTIAEDLVVTKYKMGGDIANRVLRSLVEASSSGVSVLSLCEKGDAMIMEETGKIFKKEKEMKKGIAFPTSISVNNCVCHFSPLKSDQDYILKEGDLVKIDLGVHVDGFIANVAHTFVVDVAQGTQVTGRKADVIKAAHLCAEAALRLVKPGNQNTQVTEAWNKVAHSFNCTPIEGMLSHQLKQHVIDGEKTIIQNPTDQQKKDHEKAEFEVHEVYAVDVLVSSGEGKAKDAGQRTTIYKRDPSKQYGLKMKTSRAFFSEVERRFDAMPFTLRAFEDEKKARMGVVECAKHELLQPFNVLYEKEGEFVAQFKFTVLLMPNGPMRITSGPFEPDLYKSEMEVQDAELKALLQSSASRKTQKKKKKK
modifications: 35S-labelled
binds: all assays above
